Hit rate of the full screen: of about 310,000 compounds, about 14,000 (4.5%) showed an effect of 50% or more. The effect is printed as a negative number. Some of the results follow.
These compounds were tested against human ether-à-go-go-related gene (hERG) potassium channel (human, UniProt Q12809) (assay: primary screen, population patch clamp on CHO cells stably expressing hERG).
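Further: peak tail current of the secondary pulse compared with the same well before compound.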

human ether-à-go-go-related gene (hERG) potassium channel, sequence (Q12809 whole entry, looked up): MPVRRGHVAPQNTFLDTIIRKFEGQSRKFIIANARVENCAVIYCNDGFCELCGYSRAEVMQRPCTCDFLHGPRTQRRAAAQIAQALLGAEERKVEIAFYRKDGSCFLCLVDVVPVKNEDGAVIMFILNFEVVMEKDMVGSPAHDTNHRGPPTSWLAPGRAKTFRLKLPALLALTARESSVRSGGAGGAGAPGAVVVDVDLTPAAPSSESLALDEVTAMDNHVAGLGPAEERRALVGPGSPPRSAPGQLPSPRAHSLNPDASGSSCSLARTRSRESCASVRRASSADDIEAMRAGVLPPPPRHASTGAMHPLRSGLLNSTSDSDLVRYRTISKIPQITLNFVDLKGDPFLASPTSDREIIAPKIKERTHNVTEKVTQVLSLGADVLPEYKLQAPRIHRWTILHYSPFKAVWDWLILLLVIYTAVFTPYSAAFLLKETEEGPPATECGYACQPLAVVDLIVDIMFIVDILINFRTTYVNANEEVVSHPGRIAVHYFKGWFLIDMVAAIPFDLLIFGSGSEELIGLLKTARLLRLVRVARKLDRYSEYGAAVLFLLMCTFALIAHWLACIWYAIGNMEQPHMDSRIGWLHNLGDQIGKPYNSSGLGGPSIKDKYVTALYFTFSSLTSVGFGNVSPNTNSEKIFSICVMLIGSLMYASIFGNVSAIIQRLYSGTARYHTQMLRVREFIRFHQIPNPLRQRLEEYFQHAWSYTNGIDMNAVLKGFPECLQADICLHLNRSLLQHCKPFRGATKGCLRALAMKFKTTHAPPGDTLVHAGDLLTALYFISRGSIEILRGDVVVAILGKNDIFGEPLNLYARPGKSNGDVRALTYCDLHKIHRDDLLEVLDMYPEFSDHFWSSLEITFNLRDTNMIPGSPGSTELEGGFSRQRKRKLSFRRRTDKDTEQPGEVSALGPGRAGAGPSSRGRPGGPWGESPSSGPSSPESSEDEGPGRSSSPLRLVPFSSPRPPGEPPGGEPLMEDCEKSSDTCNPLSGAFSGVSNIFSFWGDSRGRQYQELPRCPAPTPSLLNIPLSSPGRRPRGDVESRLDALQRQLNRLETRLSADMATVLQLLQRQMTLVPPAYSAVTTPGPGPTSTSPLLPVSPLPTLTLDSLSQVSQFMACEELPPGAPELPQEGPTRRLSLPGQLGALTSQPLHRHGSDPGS

Compound | hERG current change (%, negative = inhibition) at 10uM [%]
COc1ccc(C(=O)NCCS(=O)(=O)NCc2ccccc2OC)cc1 | -9.14
O=C(NC1CCCCC1)c1ccc(S(=O)(=O)c2ccccc2)cc1 | 2.02
O=C(NCCc1c[nH]c2ccccc12)/C(=C\c1cccnc1)NC(=O)c1ccco1 | -65.1
CCC1CCCCN1S(=O)(=O)c1ccc(C(=O)Nc2nnc(-c3cccs3)o2)cc1 (centres unmarked) | -10.6
CNC(=S)NCc1ccc(Cl)cc1 | -5.22
CSC1=NCCN1C(=O)c1c(F)cccc1Cl | -6.56
CCN(CC(=O)Nc1ccccc1C(F)(F)F)C(=O)c1cc(S(=O)(=O)N(C)C)ccc1N1CCCC1 | 10.2
O=c1[nH]c(CSc2ncnc3sc(-c4ccccc4)cc23)nc2ccccc12 | 21.2
CCN(CC)c1ccc(NC(=S)NCC2CCCO2)cc1 (centres unmarked) | 7.83
CCCCn1c(N)c(N(CCC(C)C)C(=O)c2ccccc2C)c(=O)[nH]c1=O | 21.9
O=C(Nc1ccc2oc(-c3ccncc3)nc2c1)c1ccc2c(c1)OCCO2 | 9.11
O=C(NCc1ccco1)c1cccc(N2CCCC2=O)c1 | -0.984
O=C(c1ccc(Cl)c(Cl)c1)N1CCC(=O)N(C(COCc2cccc(C(F)(F)F)c2)Cc2ccccc2)CC1 (centres unmarked) | -19.7
CC1CCC2(CC1)NC(=O)N(CC(=O)NCc1cccs1)C2=O (centres unmarked) | 1.95
O=C(Nc1ccc(Cl)cc1)N(Cc1nnc2n1CCCCC2)c1ccccc1 | -15.7
Cn1c(=O)[nH]c(=O)c2c1nc(SCCC(=O)O)n2Cc1cccc(Br)c1 | 1.52
CCOC(=O)N1CCC(NCCNC(=O)c2cccc(F)c2)CC1.Cl | -3.59
CCOC(=O)[C@@H](CCc1ccccc1)N[C@H](C)C(=O)N1[C@H](C(=O)O)C[C@@H]2CCC[C@@H]21 | 15.9
O=C(O)c1cccc(N2C(=O)c3cccnc3C2=O)c1 | 3.41
Cc1cccc(NC(=O)C2CCN(S(=O)(=O)c3cccc4nsnc34)CC2)c1 | -6.3
Cc1cc(NC(=O)CSC2=NS(=O)(=O)c3ccccc3N2)no1 | 15.3
O=C(N/C(=C\c1ccc(O)cc1)C(=O)N1CCCCC1)c1ccccc1 | 5.13

Compound | hERG current change (%, negative = inhibition) at 10uM [%]
Cc1ccc(C(=O)N2CCN=C2SCc2ccc([N+](=O)[O-])cc2)cc1 | -70.5
NNC(=O)CCN(Cc1ccco1)S(=O)(=O)c1ccc(Cl)cc1 | 7.94
Cc1csc(C(C#N)C(=O)c2ccncc2)n1 (centres unmarked) | 19.2
COc1ccc(Oc2coc3cc(OC(=O)c4cncc(Br)c4)ccc3c2=O)cc1 | 11.3
COc1ccc(-n2ccnc2SCC(=O)NC2CCCC2)c(OC)c1 | -10.8
COc1cccc(OC)c1C(=O)Nc1cccc2c1CCCC2 | 9.17
CC(C)(C)c1ccc(/C=N/Nc2ccc(C(=O)O)cc2)cc1 | 5.01
c1ccc(CNc2nc3ccccc3n3cnnc23)cc1 | -4.49
CC1=NN(c2ccc(C(=O)O)cc2)C(=O)CC1 | 14.1
Oc1[nH]c2ccccc2c1N=NC(=S)NCCc1ccccc1 | 11.2
CC(C)c1ccc(C2N3CC4([N+](=O)[O-])CN2CC([N+](=O)[O-])(C3)C4(C)C)cc1 (centres unmarked) | 28.4
Cc1ccc2cc([N+](=O)[O-])ccc2n1 | 13.3
CCOc1cc2[nH]c(=S)n(CCCC(=O)NCc3ccccn3)c(=O)c2cc1OCC | 17.2
COc1cccc(NC(C)=[N+](C)CCNS(=O)(=O)c2ccc(Cl)cc2)c1.[I-] | -64.4
CCOC(=O)CC(=O)CSc1nc2c(cc1C#N)CCCCCC2 | -1.49
CCOC(=O)CC1C(=O)NCCN1C(=O)Nc1ccc(Cl)cc1 (centres unmarked) | 2.37
N#Cc1c(N)nc(SCC(=O)NCc2ccc3c(c2)OCO3)c(C#N)c1-c1cccs1 | -7.09
Cc1noc(C)c1COc1ccccc1C(=O)N(C)Cc1ccco1 | -1.8
CCCS(=O)(=O)N1CCCC(C(=O)N2CCC(Cc3ccccc3)CC2)C1 (centres unmarked) | -19.9
CCn1c(O)c(/C=N/N=C/c2ccccc2)c2ccc(C3=NNC(=O)CC3)cc21 | -2.88
CC1CCCN(C(=O)Nc2cccc(NC(=O)N3CCCC(C)C3C)c2)C1C (centres unmarked) | 0.168
CC(/C=N\NC(=O)CN1CCN(Cc2ccccc2)CC1)=C\c1ccco1 | -53.6

— publication PMC4336329 (PLoS ONE, 2015)
